Measured values from a collection of fitness landscapes (doi:10.1126/science.1257360).
The list shows a part of the results.

B1: PhoQ; a variant is named by its letters at X, in order, P23837 (parent)
chain: MKKLLRLFFPLSLRVRFLLATAAVVLVLSLAYGMVALIGYSVSFDKTTFRLLRGESNLFYTLAKWENNKLHVELPENIDKQSPTMTLIYDENGQLLWAQRDVPWLMKMIQPDWLKSNGFHEIEADVNDTSLLLSGDHSIQQQLQEVREDDDDAEMTHSVAVNVYPATSRMPKLTIVVVDTIPVELKSSYMVWSWFIYVLSANLLLVIPLLWVAAWWSLRPIEALAKEVRELEEHNRELLNPATTRELTSLVRNLNRLLKSERERYDKYRTTLTDLTHSLKTPLXXLQXXLRSLRSEKMSVSDAEPVMLEQISRISQQIGYYLHRASMRGGTLLSRELHPVAPLLDNLTSALNKVYQRKGVNISLDISPEISFVGEQNDFVEVMGNVLDNACKYCLEFVEISARQTDEHLYIVVEDDGPGIPLSKREVIFDRGQRVDTLRPGQGVGLAVAREITEQYEGKIVAGESMLGGARMEVIFGRQHSAPKDE

Variants of: B1
Assay: enrichment ratio after two sorts for PhoP signalling (ratio (wild type AVST 3.29)); higher = more functional
Details: with PhoP (E. coli)

Row | Variant | enrichment ratio
1 | YRPL | ≤ 0.25
2 | RGRA | ≤ 0.25
3 | HCCR | ≤ 0.25
4 | SKME | ≤ 0.25
5 | YTTT | ≤ 0.25
6 | TCSP | ≤ 0.25
7 | KSFC | ≤ 0.25
8 | WQYP | ≤ 0.25
9 | NSVP | ≤ 0.25
10 | YADG | ≤ 0.25
11 | TEDP | ≤ 0.25
12 | PYFC | ≤ 0.25
13 | EIRK | ≤ 0.25
14 | NPYC | ≤ 0.25
15 | TYCT | ≤ 0.25
16 | DSLM | ≤ 0.25
17 | RDID | ≤ 0.25
18 | GHNF | ≤ 0.25
19 | MSPI | ≤ 0.25
20 | QMAA | ≤ 0.25
21 | PKMC | ≤ 0.25
22 | SHHE | ≤ 0.25
23 | HVLA | ≤ 0.25
24 | WTYK | ≤ 0.25
25 | FTTV | ≤ 0.25

Row | Variant | enrichment ratio
26 | EAEW | ≤ 0.25
27 | AARF | ≤ 0.25
28 | PSKA | ≤ 0.25
29 | WVFD | ≤ 0.25
30 | FPIM | ≤ 0.25
31 | RRHT | ≤ 0.25
32 | PVAF | ≤ 0.25
33 | SQMQ | 7.7
34 | TFHA | ≤ 0.25
35 | KGQP | ≤ 0.25
36 | LKSP | ≤ 0.25
37 | TQHR | ≤ 0.25
38 | DQLY | ≤ 0.25
39 | IGYV | ≤ 0.25
40 | SGAP | ≤ 0.25
41 | TCSG | 26.2
42 | MYIF | ≤ 0.25
43 | WEEQ | ≤ 0.25
44 | GMKG | ≤ 0.25
45 | TNRG | ≤ 0.25
46 | ERHN | ≤ 0.25
47 | SSQK | ≤ 0.25
48 | DIGP | ≤ 0.25
49 | FRPD | ≤ 0.25
50 | MKMR | ≤ 0.25

Row | Variant | enrichment ratio
51 | IHNC | 0.671
52 | TPFL | ≤ 0.25
53 | PHIS | ≤ 0.25
54 | RTFC | ≤ 0.25
55 | PWYA | ≤ 0.25
56 | HQVY | ≤ 0.25
57 | FDIC | ≤ 0.25
58 | IEIV | ≤ 0.25
59 | KKGP | ≤ 0.25
60 | LGTF | ≤ 0.25
61 | VRWR | ≤ 0.25
62 | FTSD | ≤ 0.25
63 | NGAA | ≤ 0.25
64 | IWEV | ≤ 0.25
65 | AHGY | ≤ 0.25
66 | PCHC | ≤ 0.25
67 | AGLN | 5.75
68 | ADMD | ≤ 0.25
69 | TAYL | 10.9
70 | LEWN | ≤ 0.25
71 | TDMF | 5.69
72 | GCLC | 6.46
73 | PSRE | ≤ 0.25
74 | KMSD | ≤ 0.25
75 | WSAK | ≤ 0.25

Row | Variant | enrichment ratio
76 | KLYK | ≤ 0.25
77 | DFRT | ≤ 0.25
78 | AMET | ≤ 0.25
79 | LHTN | ≤ 0.25
80 | YWQM | ≤ 0.25
81 | FSMH | 0.307
82 | LGHH | ≤ 0.25
83 | NIEI | ≤ 0.25
84 | DQWT | ≤ 0.25
85 | QYLQ | ≤ 0.25
86 | ESPM | ≤ 0.25
87 | EGIV | ≤ 0.25
88 | KNYF | ≤ 0.25
89 | SSFY | 5.08
90 | PWDG | ≤ 0.25
91 | LNQV | ≤ 0.25
92 | ENCD | ≤ 0.25
93 | WMEG | ≤ 0.25
94 | RVKW | ≤ 0.25
95 | TCTN | 22.5
96 | SQTR | ≤ 0.25
97 | KVDI | ≤ 0.25
98 | YAMI | ≤ 0.25
99 | KSCQ | ≤ 0.25
100 | YLPK | ≤ 0.25

Row | Variant | enrichment ratio
101 | NFCQ | ≤ 0.25
102 | KYME | ≤ 0.25
103 | MGKS | ≤ 0.25
104 | MNCI | ≤ 0.25
105 | PQCN | ≤ 0.25
106 | RYHH | ≤ 0.25
107 | SNGI | 12.1
108 | RTNQ | ≤ 0.25
109 | PSFT | ≤ 0.25
110 | LCEH | ≤ 0.25
111 | WSWK | ≤ 0.25
112 | VGPS | ≤ 0.25
113 | TWVQ | ≤ 0.25
114 | MHYD | ≤ 0.25
115 | ISSK | ≤ 0.25
116 | YCMF | ≤ 0.25
117 | PANV | ≤ 0.25
118 | RITW | ≤ 0.25
119 | GLGV | ≤ 0.25
120 | LEKA | ≤ 0.25
121 | LYLW | ≤ 0.25
122 | TIAC | 12.1
123 | RCAS | ≤ 0.25
124 | YKMY | ≤ 0.25
125 | DEFE | ≤ 0.25

Row | Variant | enrichment ratio
126 | MMMT | ≤ 0.25
127 | RWTY | ≤ 0.25
128 | FETR | ≤ 0.25
129 | GRHG | ≤ 0.25
130 | HTKP | ≤ 0.25
131 | LVCS | ≤ 0.25
132 | SAFM | 2.73
133 | REVV | 0.48
134 | GNLC | 4.14
135 | KTEV | ≤ 0.25
136 | GETV | 0.874
137 | DIEL | ≤ 0.25
138 | DISY | ≤ 0.25
139 | FRPM | ≤ 0.25
140 | EQNN | ≤ 0.25
141 | LSMF | ≤ 0.25
142 | TLFV | ≤ 0.25
143 | QPYP | ≤ 0.25
144 | RDTG | ≤ 0.25
145 | FPYI | ≤ 0.25
146 | LGWM | 2.02
147 | MVCC | ≤ 0.25
148 | FWFN | ≤ 0.25
149 | QQIV | ≤ 0.25
150 | VRFT | ≤ 0.25

Row | Variant | enrichment ratio
151 | EEFW | ≤ 0.25
152 | NAER | ≤ 0.25
153 | SEDM | ≤ 0.25
154 | GPYA | ≤ 0.25
155 | FVCH | ≤ 0.25
156 | EPYL | ≤ 0.25
157 | ECTF | ≤ 0.25
158 | QQTY | ≤ 0.25
159 | QESV | 29.9
160 | MCDI | ≤ 0.25
161 | DTNT | ≤ 0.25
162 | YSHL | ≤ 0.25
163 | FRMQ | ≤ 0.25
164 | GLPK | ≤ 0.25
165 | IYLL | ≤ 0.25
166 | LSCV | ≤ 0.25
167 | DDYR | ≤ 0.25
168 | PGYM | ≤ 0.25
169 | RDFY | ≤ 0.25
170 | IKMG | ≤ 0.25
171 | IAPG | ≤ 0.25
172 | EYGE | ≤ 0.25
173 | RWWV | ≤ 0.25
174 | AFNF | ≤ 0.25
175 | PLEF | ≤ 0.25

Row | Variant | enrichment ratio
176 | YCEF | ≤ 0.25
177 | ENNL | ≤ 0.25
178 | KDSR | ≤ 0.25
179 | MIMD | ≤ 0.25
180 | RQKI | 19.2
181 | KFHM | ≤ 0.25
182 | NWML | ≤ 0.25
183 | YQGL | ≤ 0.25
184 | YLCV | ≤ 0.25
185 | AIHQ | ≤ 0.25
186 | TIHY | ≤ 0.25
187 | REYQ | ≤ 0.25
188 | HTCF | ≤ 0.25
189 | LQIP | ≤ 0.25
190 | KYHE | ≤ 0.25
191 | ANEG | ≤ 0.25
192 | LQYL | ≤ 0.25
193 | SPQT | ≤ 0.25
194 | PPEK | ≤ 0.25
195 | STVF | 8.56
